Data reported in the supplement of paper PMC4604168 (melanoma cell lines).
This is one part of the list. Repeats are few or missing, and single values can be far off.

Assays:
Assay in all cases: cell count relative to DMSO control; melanoma cells; higher = more viable cells
Conditions in all cases: library dose: low library concentration; 72 h
WM115 = tested on: WM115
WM1716 = tested on: WM1716
WM1745 = tested on: WM1745
WM3526 = tested on: WM3526
WM3619 = tested on: WM3619
WM451Lu = tested on: WM451Lu
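Further: cell number obtained by counting DAPI-stained nuclei in high-throughput microscope images with image analysis software, screen run in 1,536-well plates.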

Row | SMILES | cell count (WM115) | cell count (WM1716) | cell count (WM1745) | cell count (WM3526) | cell count (WM3619) | cell count (WM451Lu)
1 | N.N.[Cl][Pt][Cl] [cisplatin] + Oc1cc(-c2nc(-c3ccccc3)[nH]c2-c2ccncc2)ccc1Cl [L779450] (first compound 1.6 µM, partner dose 0.2 µM) | 101% | 97.4% | 85.7% | 96.3% | 84.1% | 93.9%
2 | C[C@]12O[C@H](C[C@]1(O)CO)n1c3ccccc3c3c4c(c5c6ccccc6n2c5c31)CNC4=O [Lestaurtinib] + C#Cc1cccc(Nc2ncnc3cc(OCCOC)c(OCCOC)cc23)c1 [erlotinib] (first compound 0.004 µM, partner dose 0.8 µM) | 90% | 98.1% | 92.6% | 64.8% | 85.8% | 115%
3 | N.N.[Cl][Pt][Cl] [cisplatin] + C=CCn1c(=O)c2cnc(Nc3ccc(N4CCN(C)CC4)cc3)nc2n1-c1cccc(C(C)(C)O)n1 [MK1775] (first compound 1.6 µM, partner dose 0.02 µM) | 79.3% | 86.7% | 94.6% | 94.7% | 88.3% | 106%
4 | C[As](C)SC[C@H](NC(=O)CC[C@H](N)C(=O)O)C(=O)NCC(=O)O [Darinaparsin] + COc1ccc2c(c1)CCC1C2CCC2(C)C(NCCCCCCN3C(=O)C=CC3=O)CCC12 [U73122] (first compound 0.4 µM, partner dose 0.4 µM) | 90.3% | 105% | 87.5% | 118% | 94.8% | 72.4%
5 | Cn1cc(C2=C(c3cn(C4CCN(Cc5ccccn5)CC4)c4ccccc34)C(=O)NC2=O)c2ccccc21 [Enzastaurin] + CN1CCN(c2ccc3nc(-c4c(N)c5c(F)cccc5[nH]c4=O)[nH]c3c2)CC1 [Dovitinib] (first compound 0.8 µM, partner dose 0.1 µM) | 115% | 103% | 87.6% | 119% | 114% | 102%
6 | C[As](C)SC[C@H](NC(=O)CC[C@H](N)C(=O)O)C(=O)NCC(=O)O [Darinaparsin] + CC(C)(C)c1cnc(CSc2cnc(NC(=O)C3CCNCC3)s2)o1 [SNS-032] (first compound 0.4 µM, partner dose 0.01 µM) | 86.7% | 86.4% | 82.4% | 85.9% | 90.4% | 101%
7 | C[C@]12O[C@H](C[C@]1(O)CO)n1c3ccccc3c3c4c(c5c6ccccc6n2c5c31)CNC4=O [Lestaurtinib] + COc1ccc(-c2ccc3c(N4CCOCC4)nc(N4C[C@@H](C)O[C@@H](C)C4)nc3n2)cc1CO [KU0063794] (first compound 0.004 µM, partner dose 0.02 µM) | 87.9% | 102% | 94.1% | 66.1% | 83.9% | 97.2%
8 | Cn1cc(C2=C(c3cn(C4CCN(Cc5ccccn5)CC4)c4ccccc34)C(=O)NC2=O)c2ccccc21 [Enzastaurin] + Cn1sc(=O)n(Cc2ccccc2)c1=O [TDZD-8] (first compound 0.8 µM, partner dose 0.4 µM) | 112% | 118% | 102% | 121% | 116% | 83.2%
9 | N.N.[Cl][Pt][Cl] [cisplatin] + Cc1nc(Nc2ncc(C(=O)Nc3c(C)cccc3Cl)s2)cc(N2CCN(CCO)CC2)n1 [dasatanib] (first compound 1.6 µM, partner dose 0.004 µM) | 83.9% | 96.4% | 82% | 76.8% | 79.9% | 93.1%
10 | N.N.[Cl][Pt][Cl] [cisplatin] + COc1ccc(COc2ccc(Cc3cnc(N)nc3N)cc2OC)cc1 [GW2580] (first compound 1.6 µM, partner dose 1 µM) | 93% | 104% | 115% | 103% | 130% | 89.7%
11 | N.N.[Cl][Pt][Cl] [cisplatin] + O=C(CCCCCCC(=O)Nc1ccccc1)NO [vorinostat] (first compound 1.6 µM, partner dose 0.08 µM) | 92.4% | 111% | 81.5% | 104% | 104% | 92.6%
12 | Cn1cc(C2=C(c3cn(C4CCN(Cc5ccccn5)CC4)c4ccccc34)C(=O)NC2=O)c2ccccc21 [Enzastaurin] + CN(c1ncccc1CNc1nc(Nc2ccc3c(c2)CC(=O)N3)ncc1C(F)(F)F)S(C)(=O)=O [PF562271] (first compound 0.8 µM, partner dose 0.08 µM) | 80.6% | 89.7% | 90% | 119% | 108% | 77.7%
13 | C[As](C)SC[C@H](NC(=O)CC[C@H](N)C(=O)O)C(=O)NCC(=O)O [Darinaparsin] + O=C(Nc1cccc(Cl)c1)Nc1ncc(CCNc2ncnc3ccsc23)s1 [SNS314] (first compound 0.4 µM, partner dose 0.0008 µM) | 81.6% | 102% | 114% | 99.4% | 103% | 82.9%
14 | C[C@]12O[C@H](C[C@]1(O)CO)n1c3ccccc3c3c4c(c5c6ccccc6n2c5c31)CNC4=O [Lestaurtinib] + N.N.[Cl][Pt][Cl] [cisplatin] (first compound 0.004 µM, partner dose 1.6 µM) | 90.2% | 94.1% | 79.2% | 82.3% | 80.2% | 87.9%
15 | N.N.[Cl][Pt][Cl] [cisplatin] + O=C(Oc1ccc([N+](=O)[O-])cc1)N1CCC(C(O)(c2ccc3c(c2)OCO3)c2ccc3c(c2)OCO3)CC1 [JZL184] (first compound 1.6 µM, partner dose 1 µM) | 94% | 94.6% | 95.5% | 89.1% | 104% | 95.5%
16 | C[C@]12O[C@H](C[C@]1(O)CO)n1c3ccccc3c3c4c(c5c6ccccc6n2c5c31)CNC4=O [Lestaurtinib] + CCCCCCCCCCCC1=C(O)C(=O)C=C(O)C1=O [Embelin] (first compound 0.004 µM, partner dose 1.2 µM) | 103% | 113% | 95.1% | 110% | 77.1% | 98.6%

Row | SMILES | cell count (WM115) | cell count (WM1716) | cell count (WM1745) | cell count (WM3526) | cell count (WM3619) | cell count (WM451Lu)
17 | N.N.[Cl][Pt][Cl] [cisplatin] + c1cc(-c2cnn3cc(-c4ccc(OCCN5CCCCC5)cc4)cnc23)ccn1 [Dorsomorphin] (first compound 1.6 µM, partner dose 0.4 µM) | 94.4% | 86.1% | 89.9% | 88.8% | 100% | 68.8%
18 | N.N.[Cl][Pt][Cl] [cisplatin] + C[As](C)SC[C@H](NC(=O)CC[C@H](N)C(=O)O)C(=O)NCC(=O)O [Darinaparsin] (first compound 1.6 µM, partner dose 0.4 µM) | 107% | 98% | 98.8% | 96.3% | 121% | 107%
19 | C[As](C)SC[C@H](NC(=O)CC[C@H](N)C(=O)O)C(=O)NCC(=O)O [Darinaparsin] + OCCn1cc(-c2cnc3nnn(Cc4ccc5ncccc5c4)c3n2)cn1 [PF04217903] (first compound 0.4 µM, partner dose 1 µM) | 108% | 93.8% | 78% | 93.5% | 119% | 70%
20 | C[C@]12O[C@H](C[C@]1(O)CO)n1c3ccccc3c3c4c(c5c6ccccc6n2c5c31)CNC4=O [Lestaurtinib] + C=CCNC1=C2C[C@@H](C)C[C@H](OC)[C@H](O)[C@@H](C)/C=C(\C)[C@H](OC(N)=O)[C@@H](OC)/C=C\C=C(/C)C(=O)NC(=CC1=O)C2=O [Tanespimycin] (first compound 0.004 µM, partner dose 0.002 µM) | 95% | 120% | 94.1% | 85.4% | 115% | 90.7%
21 | C[As](C)SC[C@H](NC(=O)CC[C@H](N)C(=O)O)C(=O)NCC(=O)O [Darinaparsin] + Oc1cc(-c2nc(-c3ccccc3)[nH]c2-c2ccncc2)ccc1Cl [L779450] (first compound 0.4 µM, partner dose 0.2 µM) | 79.1% | 103% | 79.5% | 56.2% | 85.4% | 100%
22 | Cn1cc(C2=C(c3cn(C4CCN(Cc5ccccn5)CC4)c4ccccc34)C(=O)NC2=O)c2ccccc21 [Enzastaurin] + NC1(c2ccc(-c3nc4ccn5c(=O)[nH]nc5c4cc3-c3ccccc3)cc2)CCC1 [MK2206] (first compound 0.8 µM, partner dose 0.4 µM) | 98.6% | 101% | 81.2% | 94.5% | 78.2% | 120%
23 | C[C@]12O[C@H](C[C@]1(O)CO)n1c3ccccc3c3c4c(c5c6ccccc6n2c5c31)CNC4=O [Lestaurtinib] + O=C(Oc1ccc([N+](=O)[O-])cc1)N1CCC(C(O)(c2ccc3c(c2)OCO3)c2ccc3c(c2)OCO3)CC1 [JZL184] (first compound 0.004 µM, partner dose 1 µM) | 89.4% | 97.9% | 93.9% | 64.6% | 113% | 88.7%
24 | C[As](C)SC[C@H](NC(=O)CC[C@H](N)C(=O)O)C(=O)NCC(=O)O [Darinaparsin] + C[C@@H]1CCN(C(=O)CC#N)C[C@@H]1N(C)c1ncnc2[nH]ccc12 [CP690550] (first compound 0.4 µM, partner dose 1 µM) | 97.3% | 102% | 112% | 95% | 106% | 94%
25 | C[As](C)SC[C@H](NC(=O)CC[C@H](N)C(=O)O)C(=O)NCC(=O)O [Darinaparsin] + CO[C@@H]1[C@H](N(C)C(=O)c2ccccc2)C[C@H]2O[C@]1(C)n1c3ccccc3c3c4c(c5c6ccccc6n2c5c31)C(=O)NC4 [Midostaurin] (first compound 0.4 µM, partner dose 0.08 µM) | 93.7% | 76.7% | 96.8% | 95.4% | 98.9% | 85%
26 | Cn1cc(C2=C(c3cn(C4CCN(Cc5ccccn5)CC4)c4ccccc34)C(=O)NC2=O)c2ccccc21 [Enzastaurin] + COc1cc(Nc2ncc(F)c(Nc3ccc4c(n3)NC(=O)C(C)(C)O4)n2)cc(OC)c1OC [Tamatinib] (first compound 0.8 µM, partner dose 0.4 µM) | 98.9% | 87.5% | 76% | 95.4% | 81% | 107%
27 | N.N.[Cl][Pt][Cl] [cisplatin] + CN1CCN(c2ccc3nc(-c4c(N)c5c(F)cccc5[nH]c4=O)[nH]c3c2)CC1 [Dovitinib] (first compound 1.6 µM, partner dose 0.1 µM) | 110% | 99.3% | 92.4% | 84% | 98.5% | 86.8%
28 | N.N.[Cl][Pt][Cl] [cisplatin] + CCN(CC)CCCCNc1ncc2cc(-c3cc(OC)cc(OC)c3)c(NC(=O)NC(C)(C)C)nc2n1 [PD173074] (first compound 1.6 µM, partner dose 0.1 µM) | 91.8% | 105% | 89.7% | 94.5% | 101% | 89.7%
29 | Cn1cc(C2=C(c3cn(C4CCN(Cc5ccccn5)CC4)c4ccccc34)C(=O)NC2=O)c2ccccc21 [Enzastaurin] + O=S(=O)(c1ccccc1)N(CC(F)(F)F)c1ccc(C(O)(C(F)(F)F)C(F)(F)F)cc1 [T0901317] (first compound 0.8 µM, partner dose 1.4 µM) | 105% | 94.5% | 84.3% | 103% | 89.1% | 98.4%
30 | N.N.[Cl][Pt][Cl] [cisplatin] + O=c1cc(-c2cccc3c2Sc2ccccc2S3)oc(N2CCOCC2)c1 [KU55933] (first compound 1.6 µM, partner dose 1 µM) | 89.2% | 114% | 109% | 102% | 103% | 97.5%
31 | N.N.[Cl][Pt][Cl] [cisplatin] + Cc1ccc(NC(=O)c2cccc(N(C)C)c2)cc1NC(=O)c1ccc(O)cc1 [ZM336372] (first compound 1.6 µM, partner dose 2 µM) | 90.3% | 112% | 77.6% | 98% | 76.7% | 94.2%
